From paper PMC6212790
The list shows a part of the results. At the low end of the ranking, values are background and their order means little.

The sequences below were run against T1, GST-Rok (full length) (UniProt O34857) (assay: protein binding microarray). Conditions: Rok is a gene silencer of Bacillus subtilis; high values mean tight binding; most listed sequences are background and not binding sites; double strand, one strand shown.
T1 sequence: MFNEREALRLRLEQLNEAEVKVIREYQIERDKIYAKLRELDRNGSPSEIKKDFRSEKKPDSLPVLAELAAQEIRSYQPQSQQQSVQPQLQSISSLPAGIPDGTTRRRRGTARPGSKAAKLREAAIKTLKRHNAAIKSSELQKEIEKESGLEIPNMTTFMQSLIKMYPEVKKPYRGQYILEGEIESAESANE
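Also: rank score from −0.5 (least bound) to 0.5 (best bound).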

| Sequence | binding signal [E-score] |
| --- | --- |
| CTCGCTCC | -0.273 |
| ATCCCGAT | 0.165 |
| ATGTATCA | 0.324 |
| ATTAACGA | 0.134 |
| CAGTAATG | 0.0273 |
| TCCCCACA | -0.371 |
| GTCTCTAA | -0.0327 |
| CATTCTCG | -0.0568 |
| CCAATCCG | -0.0703 |
| AGGCATGC | -0.113 |
| CGCGGAGC | -0.204 |
| CATTATAG | 0.255 |
| AATGAAAG | 0.0476 |
| CTCCGGCC | -0.246 |
| ATACGGCA | 0.117 |
| GTTCAAGA | -0.135 |
| CCTAACTA | 0.26 |
| ATCTCATC | 0.121 |
| GTCCAGAC | -0.238 |
| AAGGCTCT | -0.163 |
| AGTGAATG | 0.0707 |
| ATTACTTG | 0.111 |
| AGAGTCCC | -0.313 |
| CATAAGAG | 0.0713 |
| GGGCCTAA | -0.307 |

| Sequence | binding signal [E-score] |
| --- | --- |
| CCAGAGTC | -0.189 |
| GAATACAC | 0.0158 |
| TAATAACA | 0.238 |
| CTTGCAAC | 0.0294 |
| CGGTAGGA | 0.281 |
| ATACTAAA | 0.391 |
| AGTTCCTG | 0.11 |
| ATATATGC | 0.338 |
| CTCTTACC | -0.0316 |
| ACGCAGAT | 0.0458 |
| GACCCGGA | -0.15 |
| ACTACGCT | 0.0979 |
| GTGGAAGA | -0.0706 |
| ACATTATC | 0.313 |
| GCGGCCCC | -0.464 |
| GCTGGGCA | -0.247 |
| ATTTTGGG | -0.0778 |
| GGCGCCCC | -0.347 |
| AGGTTTAT | 0.0678 |
| TAGGCACA | 0.0555 |
| AATTCCGC | 0.128 |
| ATACTGAC | 0.102 |
| GAGCAGGC | -0.25 |
| ACCGCCTC | -0.305 |
| GACTCACA | -0.0949 |

| Sequence | binding signal [E-score] |
| --- | --- |
| GCCTCCCC | -0.354 |
| AACGTACA | 0.155 |
| CAATGCTG | -0.141 |
| CCCTTGTC | -0.297 |
| AATAAAGT | 0.0461 |
| CAAAAGTG | -0.165 |
| CATCCCAG | -0.0784 |
| ACTCGCCC | -0.0753 |
| CGGTAGTA | 0.342 |
| AGGCTTGG | -0.264 |
| TAGAAGAA | 0.109 |
| ACGACTGC | -0.0458 |
| CTTCCGCC | -0.247 |
| GCGATGTA | 0.042 |
| AGGGGACA | -0.318 |
| AACTAATG | 0.339 |
| ACCCACAC | 0.0119 |
| CGGGACTA | -0.0393 |
| GTGTTCTA | 0.289 |
| GCTCCAGA | -0.29 |
| CGGTGATC | -0.0519 |
| AGACGGAT | -0.164 |
| CTCTCACA | -0.156 |
| GGGACAAA | -0.151 |
| ACTCTCCA | -0.0297 |

| Sequence | binding signal [E-score] |
| --- | --- |
| ATACACGG | 0.0962 |
| ATAGTGAG | 0.262 |
| AGGGCGAC | -0.222 |
| CGCGCTTC | 0.093 |
| TAATTACA | 0.335 |
| GTACGGTA | 0.232 |
| ACTTCTCG | 0.0799 |
| GAGTCCTA | -0.0464 |
| CTCAAGGC | -0.321 |
| GGTTCTAC | 0.0507 |
| AACGACAG | 0.0268 |
| GATCAACC | -0.176 |
| ATTCTGAA | 0.137 |
| GCCACAAA | -0.162 |
| GATTATAC | 0.217 |
| GGACCCCA | -0.382 |
| CATGGTCG | 0.000741 |
| GCCCGGCC | -0.442 |
| ACCACACA | 0.00655 |
| ATCCTTAC | 0.0577 |
| ACATATCC | 0.179 |
| GATTGTAA | 0.0122 |
| ATGGCGCG | -0.0369 |
| GGATGCAC | -0.16 |
| ACTTGCCA | 0.142 |

| Sequence | binding signal [E-score] |
| --- | --- |
| ACGTCCAT | -0.216 |
| ACCTAGTC | 0.123 |
| AATTTAAA | 0.111 |
| GGAGAGCA | -0.299 |
| CTCCTGAA | -0.152 |
| ACGCCCGA | 0.0062 |
| CACTGAGA | -0.00974 |
| CCAATAAA | 0.204 |
| AACGTCTA | -0.0148 |
| GCTACATA | 0.31 |
| GTGTTACA | 0.0743 |
| GCATCCGA | -0.183 |
| GATCCCCC | -0.395 |
| CATTTAAG | 0.0548 |
| CACATTAC | 0.139 |
| ACAGAAGA | 0.0217 |
| CTGAAGTC | 0.132 |
| GCAACGCC | -0.0716 |
| GGAAAGCA | -0.232 |
| CAAATTCA | 0.131 |
| AAATCAGT | 0.143 |
| CGGGTGGA | -0.162 |
| ACAAAGAA | 0.00411 |
| CCCTCCAG | -0.295 |
| ACTATGAA | 0.214 |

| Sequence | binding signal [E-score] |
| --- | --- |
| CGAGATTC | 0.0851 |
| CGAGTAAC | 0.156 |
| TCGGTCAA | -0.0184 |
| ATTCAGTA | 0.23 |
| AACACGGG | 0.000601 |
| CAAGGGGG | -0.305 |
| TCGAGCCA | -0.116 |
| CGCTGGTA | 0.0821 |
| CCCATTGC | -0.205 |
| AATAAGGT | 0.133 |
| AAACTTCC | -0.212 |
| CCGGCGAA | -0.00971 |
| CGAACCTA | 0.128 |
| CGAACTGC | -0.11 |
| ATACGGAT | 0.223 |
| GACGAAAC | 0.0677 |
| AATGGCTA | -0.0683 |
| ACCGGGTC | -0.107 |
| GCAACATA | 0.167 |
| CCCCTAAA | -0.272 |
| GGTGACGA | -0.186 |
| ACCCCGTC | -0.371 |
| ACTGACCT | 0.14 |
| CAGCACTC | -0.226 |
| AATAGGAC | -0.0353 |

| Sequence | binding signal [E-score] |
| --- | --- |
| GGCAGCGA | -0.0636 |
| AGACTACC | 0.249 |
| GACACCTA | -0.11 |
| AGCACCCC | -0.287 |
| AATGATGC | 0.0194 |
| ACAGTGAT | 0.0634 |
| AAGGACGA | -0.157 |
| AGGTCCGA | -0.0739 |
| GAAACATC | 0.0397 |
| GGTCTGAC | -0.331 |
| ACAAGAAA | -0.0731 |
| TGGAACCA | -0.177 |
| AGAAGATG | 0.193 |
| AGCGGGGG | -0.353 |
| ACTTGATG | -0.00809 |
| CTAGCTAG | 0.327 |
| AGAGAGTC | -0.223 |
| TAGATTAA | 0.226 |
| AGAGGGGA | -0.324 |
| AGTACAGA | 0.0801 |
| ATAAAGTG | -0.05 |
| ACTTTGAT | 0.151 |
